Screen size: about 390,000 compounds; about 930 (0.24%) were called active. The shares of active, inactive and inconclusive entries below differ from those in the screen. Calls come from the whole dose curve; as a rule, active = well fitted activation curve with a large enough effect; inconclusive = small, poorly fitted or top-dose-only effect; inactive = no such curve, though single readings can be large or run the other way. Where the call is inconclusive, the potency comes from a doubtful curve fit.
Assay: qHTS for Suppressors of FUS Proteinopathy: Primary screen using FUS-linked yeast assay; note: nearly all actives have a fitted effect of over 55% in size;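 for growth rescue (activation): plate controls were DMSO vehicle for no effect and reference control for full effect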
Details: S. cerevisiae FUS-expressing, OD600, 24 h; Potency: growth rescue; growth rescue (activation): at 76.6 µM (top of the series)
Summary of the method: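 S. cerevisiae expressing FUS from galactose induction served as the toxicity model. Growth after 24hr at 30C, read as absorbance at 600 nm, indicates suppression of toxicity; compounds dosed at several concentrations.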
Potency is the fitted concentration of half-maximal effect; tags give direction and shape of the fitted curve.

| Structure (SMILES) | Potency | growth rescue (activation) |
| --- | --- | --- |
| CCn1c2ccccc2c2nc3cc(S(=O)(=O)N4CCOCC4)ccc3nc21 | inconclusive: 2 µM [activator, full curve, poor fit] | – |
| O=C(CC1c2cc(F)ccc2C=C(c2ccsc2)N1c1ccc(C#CCCO)cc1)c1ccco1 (stereo not given) | inconclusive: 35.5 µM [activator, single point] | – |
| CSc1ccc(CCNC(=O)c2sc3ncccc3c2-n2cccc2)cc1 | – | inactive: 20.5% |
| Cn1nc(-c2ccccc2)c(-c2ccccc2)c(C(=O)Nc2ccc(S(N)(=O)=O)cc2)c1=O | inconclusive: 44.7 µM [activator, single point] | – |
| CC(C)(C)OC(=O)C[C@H]1C/C=C\C[C@@H](CC(=O)N(CCO)Cc2ccccc2)C(=O)N[C@H](Cc2c[nH]c3ccccc23)COC1=O | active: 20 µM | – |
| Cc1cccc(-n2c(SCC(=O)Nc3ccccc3Cl)nc3n[nH]c(C)c3c2=N)c1 | – | inactive: 26.9% |
| O=C(N/N=C/c1c[nH]c2ccccc12)c1cc(-c2ccc3ccccc3c2)n[nH]1 | inconclusive: 31.6 µM [activator, partial curve] | – |
| COc1ccc(Cn2c(C(=O)O)c(CNC3CCC(C)CC3)c3ccc(C)cc32)cc1 (stereo not given) | inconclusive: 11.2 µM [activator, partial curve, poor fit] | – |
| COc1ccc(N(CC(=O)Nc2cccc(N(C)S(C)(=O)=O)c2)S(=O)(=O)c2ccc(F)cc2)cc1 | inconclusive: 11.2 µM [activator, partial curve, poor fit] | – |
| COc1cc2nc(NCc3ccccc3Cl)n3nc(-c4cccnc4)nc3c2cc1OC | inconclusive: 50.1 µM [activator, single point] | – |
| CCOc1ccc(Nc2c(S(=O)(=O)c3ccc(C)cc3)cnc3ccc(OC)cc23)cc1 | inconclusive: 28.2 µM [activator, single point] | – |
| COC(=O)[C@]12C[C@H](CC(=O)NCc3cccc4ccccc34)C(=O)N(CCc3ccc(OC)c(OC)c3)C1=C[C@H](C(C)C)O[C@@H]2C1CC1 | active: 12.6 µM | – |
| Cc1oc2c(c(C)cc3oc(=O)c(CC(=O)N[C@@H](CC(C)C)C(=O)O)c(C)c32)c1C | inconclusive: 39.8 µM [activator, partial curve, poor fit] | – |
| COc1cc(OC)cc(C(=O)NCc2ccc3c(c2)CCN3C(=O)c2ccccc2)c1 | inconclusive: 25.1 µM [activator, partial curve, poor fit] | – |
| Cc1ccc(N=C2SC(C(=O)Nc3ccc(OC(F)(F)F)cc3)C(N)=C2C(=O)Nc2c(C)cc(C)cc2C)cc1 (stereo not given) | inconclusive: 7.94 µM [activator, full curve, poor fit] | – |
